# Measured values as given in the supplement of paper PMC10681739.
# ± gives the standard deviation of the averaged measurements. Whole data set: some 4,000 sequences, median “arbitrary fluorescence units” near 830, cut for the highest 2% near 6,500. Most of the strongest results are missing from this list.
# Target: RUNX1 (UniProt Q01196)
# Assay: RUNX1 binding intensity (PBM fluorescence), RUNX1 alone (arbitrary fluorescence units); higher = stronger binding
# Conditions: RUNX1 concentration 2 nM; ETS1 concentration 0 nM
# Procedure: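 gcPBM on 36-bp genomic-derived probes (partner site mutated) containing one RUNX1 site and no ETS1 site. Recombinant human RUNX1 (2 nM) was incubated alone or with ETS1 (25 nM) and detected by anti-RUNX1 antibody fluorescence. Values are medians over 4 replicate spots (not normalised). The probes sit in constant array flanks that are not printed.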
# 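Note: Full-length recombinant human RUNX1 bound to double-stranded DNA microarray spots, detected with an Alexa488-labelled secondary antibody after the anti-RUNX1 primary, read as scanned spot fluorescence.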
# UniProt Q01196, sequence (Q01196 whole entry): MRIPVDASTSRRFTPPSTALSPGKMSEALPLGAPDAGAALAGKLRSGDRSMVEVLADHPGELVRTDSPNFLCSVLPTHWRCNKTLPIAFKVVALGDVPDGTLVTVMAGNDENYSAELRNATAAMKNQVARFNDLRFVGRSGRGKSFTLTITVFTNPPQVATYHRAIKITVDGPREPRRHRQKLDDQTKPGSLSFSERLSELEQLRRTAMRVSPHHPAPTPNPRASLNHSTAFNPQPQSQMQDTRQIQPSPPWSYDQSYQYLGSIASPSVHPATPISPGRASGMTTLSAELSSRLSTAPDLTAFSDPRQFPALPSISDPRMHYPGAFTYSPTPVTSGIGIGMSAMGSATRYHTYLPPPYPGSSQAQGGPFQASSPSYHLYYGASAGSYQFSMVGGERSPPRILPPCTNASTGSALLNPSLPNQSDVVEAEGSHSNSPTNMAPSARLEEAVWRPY
row,Sequence,RUNX1 binding intensity
1,TGGGGCCCGGGAGCGCTGGCGCCTTGCGGCCAGAAG,692
2,TTTGTTGTGGTTGGTGAGTCAATTCATCCCTCTCGC,1250
3,AGGCAGCACAGCAAGTTATAACCACATGTACACTTG,795
4,AGTTGCCTGAACTCAGAGCACAGTTGTGGTGCAGAA,747
5,AGTCGTTCCACCACCTCCCAGTCGGGTTGCGGCGGA,866
6,TTCTGTGTGGTTACTTTAAATACCAAAAGGACATGT,1570
7,CGGGGCCTGTGGTTACTACACTCCACTGCCTTATGA,1740
8,CTGGCGCCTTGCGGCCAGAAGCCCCGAATGGACGCA,784
9,GTGGTGGTTTTCAGGTTGATACCGCTCCCTGAAGAT,927
10,AAACTACATTGCCCAGCATCCCGCGCGCCGCAGACC,882
11,AGTGGATAGCACTGCCTTCTCTTACCACAGTTCCTT,862
12,CCTCAAAACCCGGCAACGCCTTGCGGGGCAGTGTGG,793
13,CACGTCGCGACCGCACAGGGGGACGTTCTCCCGCCA,1080
14,TGCACGTGACCACGGACTTTTTTTCATAGCCGCCGA,884
15,AACCCTTGCTGAAAGTAGATGGGGTATAAACCACAA,932
16,CTCCGCCCACAGCAACACAGGCGCCTCCTTGTGCAG,901
17,CTGCTTTGCCCGCAGCGCTCCGTAACACCCGGCTAC,1280
18,ACCAACCGAAAGTGATCGTGTTGTGGCCGAAGGAGG,813
19,ACTTACAAAGGAGGTGACAGAACCACAGAAAAGACC,792
20,AGTTTTTCGTCGGGCTCCCAGTGACGCCGCAGAGGT,838
21,CAAGTTGTGCTCCCCCACAAGAGGAACTACTGGGCA,799
22,GCGGCCCTGATTCCTAATCACCACAGTCAGAACCGT,807 ± 11
23,GTAAAGAGCAACCGCTGACAGGACGGGGCCCAGCAG,741
24,ATCCCACTATAGGAGGCTTCTCTGTGGTTTTGAGCC,1040
25,GTATTTATTGCCTCTTCGAAGAAATGCGGGGGTGCC,821
26,CAGCAAGCAACCACAAAACCAGAGCGCAAGGAGGGA,2250
27,CTAGCACGAAACAGACAGACCCAGCCACAGAATCTC,900

row,Sequence,RUNX1 binding intensity
1,CTCACAACTCGCGTACGGCGGAGACCACAATTCCCG,887
2,TCTGGGACATGAAAGACTTGTGGTTACTGCTGTTGA,1210
3,CCTCATTTACGGGCTGTTTGCGCGCAAGCCCACATC,876
4,GAGGACGCGAAAGTCCTTCTTGCGGGGCGGAGCTAG,699
5,TCAGGGCCACAAGCTTGGGGCTGCTCCCTGGAACTG,695
6,AAACCAACCGCAGGGAGATATAATATCTCTTCATGT,2010
7,AGCTACCACAGCCCAGGCCAGAGCATGAAGGGTAGA,788
8,CACGCCTGCTGAAGATGAAAACCACACGTCATGCAG,1010
9,CGGGCCCGCAGATATCACACCCACCCGAAAGTCCTC,938
10,CCTTTGTTGTGGTTTTTGCAGAAAGAGAAGGGTTAG,10600 ± 540
11,GAGTCTTCCTTGCGCGGCCCGGGCGCGGTTCTGGCT,736
12,ACCAGCCCAGCAAGCATCTGCGGTTCAAGTGGCCAC,1130
13,TGCCGCGGACACCCAGCCAGCGGCAGTGCGGTTAAC,1030
14,GAGAAGGCAACCGCGAAAAGGAGGCGGCAACGCCTC,991
15,GAAGAGACTCCCGCAACCTTGGCCGTCTCCCCTGAT,868
16,GCTCGCCGCGCGGTCGACAACCCCATCATGCGCTCG,1000
17,TCCACACCCTGCTCCTCGGGTTTGCGGCGAGGACTC,994
18,CTCATGCACCGCCCGCACGTCCCAGGCTGCGCTGCA,902
19,GCCCTCGGCACCCACATTCTATCAGGCTAACCAGCT,991
20,AGCGTTGTCTTACGGCCTCAACCACTCAGCGACCGG,869
21,AGCGTTTCGTGCCTGTCTGGGGCTGACAAACCACAA,866
22,GGCGGGGCATTCGGCAGCACCGCCTGCGGGCGCCCG,734
23,GCTCCCGCGGTGGGGATGCTGTCTCCGTCCTGGATG,765
24,GGTGGAGCCCTGGGCCGCATAAGGAACGAACTAGTT,687
25,TAGTCCGTCAGGGAACAGCGCAAAAGGGACCGCATG,645
26,GCAAGACCCCGCATTAACATCTCGGGAACGGACAGC,777
27,TCCGCCGCAACCCGACTGGGAGGTGGTGGAACGACT,740

row,Sequence,RUNX1 binding intensity
1,GGATGGACGGGGGCTGTTTGCAGATAACCACAGCCT,898
2,GGCACAGCTTGTGGCCAGAGGGAGCAAGAGAGAGGA,765
3,TGACTGCTCACTGCGGGCGAGGGGAACTGGAGTGCA,687
4,AGGTGGGAGGACGTTCCTACCCCGGCGCGGTGTGCA,739
5,CATCTACTGAGCAAGTGTAAGCCACAATAAGAAGCC,967
6,AAGTCCCACAATGCACTCCTCCACAGCAAGTTCCCA,1210
7,AGGGGAGGCCTGTGGTTCTCACTTGCTGGCAGAGCT,713
8,CGCCTGCGGGCTGGTCCCCATCCTTGCTCTTAGACC,1050
9,TGATGTGGTCATAACACCCTCCCCTCAGCTCCCTTA,1120
10,GAGCAGTGTAGAGAGGTGGTTATCAGTGGTCTTGAT,774
11,GTGTGGTGCTGTGGTGCAGCCCCAGGCAACACGTGC,782
12,GGGGCAGCTTACGGCAGGAGAGCCCGCATTCCCGGC,1010
13,GAGAAGAACCACAATTCAAAGTGATGGGGGAACTGG,894
14,CCCGAGCGCGCCGCAGACCGGAGGCGAGAACTGGGC,837
15,ACAGGTTCAGCAAGCGGCCGTGGTTGTTAGTGGTGT,734.5 ± 5.6
16,GGGGCACCACACAAACCATGCCCTTTGTCTTCATGC,843
17,AGAAAGCAGCAAAGTGACGTCATTTTGTGGCTTCAG,719
18,GTGACAACCGCCTCCCCAGCCACACCCTGTTTGACT,1050
19,GAGGCCGCACCCGCACCGAGCTCCCGTCCTGCGCTC,909
20,GTCCCACCACAGGCCTCCAGCCACACCCTGGGCCTC,1120
21,ATATCCCTGTGGGTGAAAAACATGCCGGGAGTGAAA,781
22,CTCAGGAATGCGGCAGTGCTCTGTGGGCACCCACCA,793
23,AAATGTGGCCAGATGCTCTGTGGGCGGGCGGCAGCT,726
24,TTGCTCGGCTCCCTGGAGCTGTGGTCCGTGTGGGCT,679
25,CATCATGAGAACCACACTCACCGAATCCAGCACCCA,946
26,CAAGCTGGCAGGGAGCGCGGTGCAACCACAAGAGTC,781
